Source: the supplement of paper PMC11417369
± gives the standard deviation of the averaged measurements. Some of the results follow.

What follows are sequences tested on PfAP2-EXP AP2 domain (GST-tagged) (assay: gcPBM binding intensity (ln(normalized median fluorescence intensity)); higher = stronger DNA binding).
Outline: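 The highest Masliner-normalised natural-log median intensity across replicate spots of either probe orientation is reported as binding intensity. GST-tagged P. falciparum DNA-binding domains expressed in E. coli were applied for 1 h to an Agilent 4 × 180k array of primer-extended double-stranded 36-bp intergenic genomic probes plus negative controls, and bound protein was detected with Alexa488 anti-GST antibody and scanned at 488 nm.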

Sequence | gcPBM binding intensity (ln)
GTCACAAAATAAATTAAACACACAACATCATATATG [CACACA_site8182] | 8.69 ± 0.53
GTGTATCAATATGTAGGTACGTAAATATAGATAATA [XGTACX_site5526] | 8.78 ± 0.41
ATTAATATGAATAAATGTACAAATGAATGATTACAT [XGTACX_site6044] | 8.55 ± 0.59
TAATATAATATATAGGTGCAATATTAACAAAAATTT | 8.63 ± 0.085
ATAATGTGTTAGGCGTGTACACAATTGTATGGTTTA [XGTACX_site2377] | 8.88 ± 0.23
AAATAAAATCATAATGTGCGCATATAAATTTGTAGG [GTGCAC_site9662] | 9.03 ± 0.39
AAGGTAGATATATTTAGTACGTAATTTTTTTTTTTT [XGTACX_site7288] | 8.28 ± 0.43
ATATATATATATGAAAGTACACATCTATTTTTTCTT [XGTACX_site6059] | 10 ± 0.28
CAAACAAATTGTGAAACACACATATATATATATATA [CACACA_site2001] | 10.2 ± 0.29
AACGTATTATTTATCTGTACAAAATAATAACGTATT [XGTACX_site813] | 8.48 ± 0.42
TAAATAAAAATACAGTGTACTTTTTTCTATTTAAAA [XGTACX_site3288] | 8.09 ± 0.23
ATCCAAATTAATAATAGTACTTTTAAGTCCTATGTA [XGTACX_site2452] | 8.16 ± 0.3
TTTTGTTTTTTCAATGTGCACTTAGGATGTTTTTAT [GTGCAC_site9565] | 9.01 ± 0.29
GATATAAACGTATATGTACATATATATATATATATA [GTGCAC_negctrl_site186] | 10.2 ± 0.41
TTGGAGTTCATATGTGGTACACATTTAAATATATTT [XGTACX_site5582] | 8.49 ± 0.32
ATCATGGAAAAAACAAATGGGCTACATTACCTTTTG [GTGCAC_negctrl_site487] | 8.34 ± 0.43
ATAATAAATGTCTTCAATGAAGTGGAAATGCTGTTA [TGCATGCA_negctrl_site238] | 8.63 ± 0.37
ATATATACATAGAATTGTACATAATTTATGTTCATT [XGTACX_site7426] | 8.28 ± 0.34
TATATACAAATATGTACACACATTACAGATGTACAT [CACACA_site6586] | 8.54 ± 0.26
TAGAAAAAATAAAATAGTACACATCCAAAAAAAAAA [XGTACX_site7829] | 8.56 ± 0.36
CCAAACAAAAAAAAAAGTACATAAAACACCTATTTG [XGTACX_site5645] | 8.68 ± 0.43
AATATATAAATATATACACACAAAAACATATATATA [CACACA_site1318] | 8.63 ± 0.35
ATAATTAGGGTGTATTTCATTTCATTTCATTTTATT [CACACA_negctrl_site1418] | 8.74 ± 0.51

Sequence | gcPBM binding intensity (ln)
TTTTATTCATCATATTGTACATTCTTGTATTTATAG [XGTACX_site8534] | 8.71 ± 0.36
ATATACTTACATATTACACACAATATTTTTAAATGG [CACACA_site5916] | 8.47 ± 0.49
TTGTATATACTATACACACACATACATACATACATA [CACACA_site814] | 8.62 ± 0.39
TATTTATAATTAAATACACACATATATTATAGATTT [CACACA_site6435] | 8.2 ± 0.38
CTTTTGCCCAAAAAGGTACACACCACAAAGTACATA [CACACA_site8169] | 8.89 ± 0.54
ACCCATATTCTTTTTACACACTTGAATAAAAAATAT [CACACA_site4797] | 8.59 ± 0.36
GAGATATAAAAGTGTACACATATTGTTATCCATATT [CACACA_site5441] | 8.61 ± 0.26
TCCCTGATGTTATTTAATATACCATAAAAAAAAAAA [CACACA_negctrl_site1472] | 8.21 ± 0.4
AATAAAAAATAAAAAAGTACATGATGAAAAGGTTTA [XGTACX_site7615] | 8.72 ± 0.44
TATATATATATATATACATGCATACAATTTTATGAG [TGCATGCA_site466] | 10.2 ± 0.29
ATCTCAAATATAATAAATTATTAGGTATATATATAT [CACACA_negctrl_site1828] | 9.89 ± 0.16
CACACTTTATAATGTTGTACGATACATTATACCAAA [XGTACX_site941] | 8.65 ± 0.38
TCTTGTTATAATAATCAATATATGGGTATACTTATG [CACACA_negctrl_site1618] | 8.39 ± 0.44
AAAAGGATTTTTTATACACACACTAACTAATGTATA [CACACA_site2356] | 8.23 ± 0.43
AAAAAAATAAATAAGACACACACAAAAAAAAAAAAA [CACACA_site8404] | 8.62 ± 0.45
TAAATAATAATAAAATGTACATTATATATGTATATG [XGTACX_site8672] | 8.44 ± 0.36
TTTTTTTTTTTTTTCTGTACTGATACTTATAGAGTT [XGTACX_site4736] | 8.34 ± 0.57
TCCTGTTGAGAATGGCGTACATATAAATATTATATA [XGTACX_site1841] | 8.35 ± 0.37
TTTCCTCATTTTATCATACACACTTGTTTATATGTG [CACACA_site8202] | 8.66 ± 0.47
TTTTTTCTTTTTATAACACACAGGTGAAAAATAATA [CACACA_site1850] | 8.4 ± 0.4
AAATAATAAATATATCGTACAAATATCATATATAAA [XGTACX_site2771] | 8.32 ± 0.38
CAGGTTCTTATATAGTGTACTATAGACATTCAATTG [XGTACX_site7239] | 8.46 ± 0.28
